According to patent US9720005B2, “Immunoassay for compounds of the NBOMe family” (Randox Laboratories Limited, priority 2014, dated 2017):

Tested on: polyclonal antibodies (RS2708 raised against the immunogen of Example 11)
Assay: Cross-reactivity on biochip platform (Evidence Investigator), Hapten 2-HRP conjugate vs cross-reactant
Settings: Table 3, concentration at which a negative response was elicited
Method: The antibody (RS2708) used to generate the data in the tables below (each of the Tables) was raised from immunogen 2 (Example 11) and the HRP tracer was prepared as in Example 12. With the exception of the data in Table 3, all IC50 and cross reactivity data were generated using the immunoassay of Example 13. The data in Table 3 were generated using the same antibody (RS2708) raised from immunogen 2 (Example 11) and the HRP tracer (Example 12) but were generated on a different immunoassay platform.
To test the cross-reactivity of the antibodies against a range of compounds, they were first immobilized on a biochip platform (9 mm×9 mm) (Randox Laboratories Ltd.), which was the vessel for the immunoreactions. The semi-automated bench top analyser Evidence Investigator was used (EV3602, Randox Laboratories Ltd., Crumlin, UK, patents—EP98307706, EP98307732, EP0902394, EP1227311, EP1434995 and EP1354623). The assay principle is based on competition for binding sites of the polyclonal antibodies (RS2708 raised against the immunogen of Example 11) between free antigen (cross-reactants) and labelled conjugate (Hapten 2-HRP, prepared as in Example 12). Assay dilutent (155 μl), calibrator/25I-NBOMe or potential cross-reactant (25 μl) followed by Hapten 2-HRP conjugate (120 μl) were added to the appropriate biochip. The biochips were then incubated for 30 minutes at 30° C. on a thermo-shaker set at 370 rpm. The biochips were then subjected to 2 quick wash cycles using the wash buffer provided, followed by 4×2 minute wash cycles. 250 μl of signal (1:1 luminol+peroxide, v/v) was then added to each biochip, and after 2 minutes the biochip carrier was imaged in the Evidence Investigator analyser. The system incorporates dedicated software to automatically process, report and archive the data generated (details can be found in FitzGerald, S. P. et al, Clin. Chem. 51(7); 1165-1176; 2005).

Row | SMILES | NEG RESPONSE Tested at Conc
1 | CC(N)Cc1ccccc1 (racemic) [(±) Amphetamine] | 16 ng/mL
2 | C[C@H](N)C(=O)c1ccccc1.Cl (racemic) [(±) Cathinone HCl] | 16 ng/mL
3 | CC(N)Cc1ccc2c(c1)OCO2 (racemic) [(±) MDA] | 16 ng/mL
4 | CCc1cc(OC)c(CCN)cc1OC [2C-E HCl] | 16 ng/mL
5 | CCCSc1cc(OC)c(CCN)cc1OC.Cl [2CT-7 HCl] | 16 ng/mL
6 | CNC(C)C(=O)c1cccc(F)c1 (centres unmarked) [3-Fluoromethcathinone] | 16 ng/mL
7 | c1ccc(CN2CCNCC2)cc1 [BZP] | 16 ng/mL
8 | C[C@@H](N)Cc1c2ccoc2c(Br)c2ccoc12 [Bromo-Dragonfly] | 16 ng/mL
9 | CCC(NC)C(=O)c1ccccc1 (centres unmarked) [Buphedrone] | 16 ng/mL
10 | CCC(NC)C(=O)c1ccc2c(c1)OCO2.Cl (centres unmarked) [Butylone HCl] | 16 ng/mL
11 | COc1cc(CCN)c(OC)cc1Br [Compound 2C-B] | 16 ng/mL
12 | COc1cc(CCN)c(OC)cc1I [Compound 2C-I] | 16 ng/mL
13 | CC(N)Cc1ccc2occc2c1 (centres unmarked) [Compound 5-APB] | 16 ng/mL
14 | CC(N)Cc1ccc2c(c1)CCO2 (centres unmarked) [Compound 5-APDB] | 16 ng/mL
15 | CC(N)Cc1ccc2[nH]ccc2c1 (centres unmarked) [Compound 5-IT] | 16 ng/mL
16 | CNC(C)Cc1ccc2occc2c1 (centres unmarked) [Compound 5-MAPB] | 16 ng/mL
17 | CC(N)Cc1ccc2ccoc2c1 (centres unmarked) [Compound 6-APB] | 16 ng/mL
18 | C[C@H](N)Cc1ccccc1 [D-Amphetamine] | 16 ng/mL
19 | COc1cc(CC(C)N)c(OC)cc1Br (centres unmarked) [DOB, 2,5-Dimethoxy-4-bromoamphetamine] | 16 ng/mL
20 | CCc1cc(OC)c(CC(C)N)cc1OC (centres unmarked) [DOET] | 16 ng/mL
21 | COc1cc(CC(C)N)c(OC)cc1C (centres unmarked) [DOM] | 16 ng/mL
22 | CN[C@@H](C)[C@H](O)c1ccccc1 [Ephedrine] | 16 ng/mL
23 | CCNC(C)C(=O)c1ccc2c(c1)OCO2.Cl (centres unmarked) [Ethylone HCl] | 16 ng/mL
24 | CCNC(C)Cc1cccc(C(F)(F)F)c1 (centres unmarked) [Fenfluramine] | 16 ng/mL

Row | SMILES | NEG RESPONSE Tested at Conc
25 | CNC(C)C(=O)c1ccc(F)cc1.Cl (centres unmarked) [Flephedrone HCl] | 16 ng/mL
26 | CNC(C)Cc1ccc2c(c1)OCO2 (centres unmarked) [MDMA] | 16 ng/mL
27 | CCC(C(=O)c1ccc2c(c1)OCO2)N1CCCC1 (centres unmarked) [MDPBP] | 16 ng/mL
28 | CC(C(=O)c1ccc2c(c1)OCO2)N1CCCC1.Cl (centres unmarked) [MDPPP HCl] | 16 ng/mL
29 | CCCC(C(=O)c1ccc2c(c1)OCO2)N1CCCC1 (centres unmarked) [MDPV] | 16 ng/mL
30 | CNC(C)C(=O)c1ccc(C)cc1 (centres unmarked) [Mephedrone] | 16 ng/mL
31 | CNC(C)C(=O)c1ccccc1 (centres unmarked) [Methcathinone] | 16 ng/mL
32 | CCNC(C)C(=O)c1ccc(C)cc1.Cl (centres unmarked) [Methylethcathinone HCl] | 16 ng/mL
33 | CNC(C)C(=O)c1ccc2c(c1)OCO2 (centres unmarked) [Methylone HCl] | 16 ng/mL
34 | COC(=O)C(c1ccccc1)C1CCCCN1 (centres unmarked) [Methylphenidate] | 16 ng/mL
35 | CCNC(C)Cc1ccccc1 (centres unmarked) [N-Ethylamphetamine] | 16 ng/mL
36 | CCNC(C)C(=O)c1ccccc1 (centres unmarked) [N-Ethylcathinone] | 16 ng/mL
37 | COc1ccc(CC(C)N)cc1.Cl (centres unmarked) [PMA HCl] | 16 ng/mL
38 | CNC(C)Cc1ccc(OC)cc1.Cl (centres unmarked) [PMMA HCl] | 16 ng/mL
39 | CC(C)(N)Cc1ccccc1 [Phentermine] | 16 ng/mL
40 | CN[C@@H](C)[C@@H](O)c1ccccc1 [Pseudoephedrine] | 16 ng/mL
41 | CN[C@H](C)C(=O)c1ccccc1.Cl [R(+)Methcathinone HCl] | 16 ng/mL
42 | COc1ccccc1CNCCn1c(=O)[nH]c2ccccc2c1=O [RH-34] | 16 ng/mL
43 | CN[C@@H](C)Cc1ccccc1 [S(+)Methamphetamine] | 16 ng/mL
44 | CN[C@@H](C)C(=O)c1ccccc1 [S(−)Methcathinone] | 16 ng/mL
45 | FC(F)(F)c1cccc(N2CCNCC2)c1 [TFMPP] | 16 ng/mL
46 | COc1cc(CC(C)N)cc(OC)c1OC (centres unmarked) [TMA] | 16 ng/mL
47 | Clc1cccc(N2CCNCC2)c1 [mcPP] | 16 ng/mL

Structures can show the parent of a compound that is named as a salt.
